According to the RNAGym collection of RNA variant scans (doi:10.1073/pnas.2313332121):
This sample is rich in variants without activity.

B1: TPR 5TU (parent)
chain: GGAUCUUCUCGAUCUAACAAAAAAGACAAAUCUGCCACAAAGCUUGAGAGCAUCUUCGGAUGCAGAGGCGGCAGCCUUCGGUGGCGCGAUAGCGCCAACGUUCUCAACUAUGACACGCAAAACGCGUGCUCCGUUGAAUGGAGUUUAUCAUG

Variants of: B1
Experiment: polymerase ribozyme fitness, log enrichment relative to wild type (log ratio); higher = more active; in vitro selection for triplet polymerase activity
Outline: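 One round of in vitro selection, in triplicate, was applied to PCR-built, transcribed mutant libraries of each subunit of a heterodimeric triplet polymerase ribozyme. The steps were annealing with a biotinylated primer, partner subunit and triplets, incubation frozen at −7 °C, gel excision of extended constructs, streptavidin-bead capture and RT-PCR. Fitness is the logarithm, base 2, of genotype enrichment over wild-type enrichment from inverse-variance-weighted replicate averages of Illumina-sequenced inputs and outputs, keeping genotypes with ≥10 input reads and ≥1 read per output.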

Polymerase ribozyme fitness (log ratio), -2.29:
GGAUCUUCUCGAUCUAACAAAAAAGACAAAUCUGUCACAAAGCUUGAGAGCCUCUUCGGAUGCAGAGGCGGCAGCCUUCGGUGGUGCGAUAGCGCCAACGUUCUCAACUAUGACACUCAAAACGCGUGCUCCGUUGAAUGGAGUUUAUCAUG [C35U A52C C85U G117U]

Polymerase ribozyme fitness (log ratio), ≤ -4.2:
GGAUCUUCUCGAUCUAACAAAAAAGACAAAUCUGUCACAAAGCUUGCGAGCAUCUGCGGAUGCUGAGGCGGCAGCCUUCGGUGGCGCGAUAGCGCCAACGUUCUCUACUAUGACACGCAAAACGCGUGCUCCUUUGAAUGGAGUUUAUCAUG [C35U A47C U56G A64U A106U G133U]
GGAUCUUCUCGAUCUAACAAAAAAGACAAAUCUGUCACAAAGCUUGUGAGCAUCAUCGGAUGCAGAGGCGGCAGCCUUCGGUGGCGAGAUAGCGCCAACGUUCUCAACUAUGACACGCAAAACGCGUGCUCCGUUGAAUGGAAUUUAUCAUG [C35U A47U U55A C87A G143A]
GGAUCUUCUCGAUCUAACAAAAAAGACAAAUCUGUCACAAAGCUUGAGCGCAUCUUCGGAUGCAGAGGCGGCAGCCUUAGGUGGCGAGAUAGCGCCAACGUUCUCAACUAUGACACGCUAAACGCGUGCUCCGUUGAAUGGAGUUUAUCAUG [C35U A49C C79A C87A A119U]
GGAUCUUCUCGAUCUAACAAAAAAGACAAAUCUGUCACAAAGCUUGAGCGCAUCUUCGGAUGCAGAGGCGGCAGCCUUCCGUGGCGCGAUAGUGCCAACGUUCUCAAUUAUGACACGCAAAACGCGUGCUCCGUUGUAUGGAGUUUAUCAUG [C35U A49C G80C C93U C108U A137U]
GGAUCUUCUCGAUCUAACAAAAAAGACAAAUCUGUCACAAAGCUUGAGCGCAUCUACGGAUGCAGAGGCGGCAGCCUUCGUUGGCGCGCUAGCGUCAACGUUCUCAACUAUGACACGGAAAACGCGUGCUCCGUUGAAUGGAGUUUAUCAUG [C35U A49C U56A G81U A89C C95U C118G]
GGAUCUUCUCGAUCUAACAAAAAAGACAAAUCUGUCACAAAGCUUGAGGGCAUCUUCGGAUGCAGAGGCGGCAGCCUUCGGUGGCGCUAUAGGGCCAACGUUCUCAACUAUGACACGCAAAACGCGUGCUCCGUUGAAUGGAGUUUAUCAUG [C35U A49G G88U C93G]
GGAUCUUCUCGAUCUAACAAAAAAGACAAAUCUGUCACAAAGCUUGAGUGCAUCUUCGGAUGCAGAGGCGGCACCCUUCUGUGGCGCGAUAGCGCCAACGUUGUCAACUAUGACACGCAAAACGCGUGCUCCGUUGAAUGGAGUUUAUCAUG [C35U A49U G74C G80U C103G]
GGAUCUUCUCGAUCUAACAAAAAAGACAAAUCUGUCACAAAGCUUGAGAGCCUCUUCGGAUGCAGAGGCGGCAGCCUUCGAUGGCUCGAUAGCGACAACGUUCUCAACUAUGACACGCAAAACGCGUGCUCCGUUGAAUGGAGUUUAUCAUG [C35U A52C G81A G86U C95A]
GGAUCUUCUCGAUCUAACAAAAAAGACAAAUCUGUCACAAAGCUUGAGAGCAUCUUCGGCUGCAGAGGCGGCAGCCUUUGGUGGCGCGAUAGCGCCAACGUUCGCUACUAUGACACGCAAAACGCGUGCUCCGUUGAAUGGAGUUUAUCAUG [C35U A60C C79U U104G A106U]
GGAUCUUCUCGAUCUAACAAAAAAGACAAAUCUGUCACAAAGCUUGAGAGCAUCUUCGGAUGCAGAGGCGGCAGCCUUCGGUGGCGCGCUAGCGCCAAGGUUCUCAACUAUGACACGCAAAACGCGUGCUCGGUUUAAUGGAGUUUAUCAUG [C35U A89C C99G C132G G136U]
GGAUCUUCUCGAUCUAACAAAAAAGACAAAUCUGUCACAAAGCUUGAGAGCAUCUUCGGAUGCAGAGGCGGCAGCCUUCGGUGGCGCGAUAGCGCCAACGUUCUCAACUAUGCAACGCAAAACGCGUGCUCCGUUGAAUGGAGUUUAUCAUG [C35U A113C C114A]
GGAUCUUCUCGAUCUAACAAAAAAGACAAAUCUGUAACAAAGCUUGAGAGCAUCUUCGGAUGCAGAGGCGGCAGCUUUCGGUGGUGCGAUAGUGCCAACGUUCUCAACUAUGACACGCAAAACGCGUGCUCCGUUGAAUGAAGUUUAUCAUG [C35U C36A C76U C85U C93U G141A]
GGAUCUUCUCGAUCUAACAAAAAAGACAAAUCUGUCACAAAGCUUGAGAGUAUCUUCGGAUGCAGAAGCGGCAGCCUUCGGUGGCGCGAUAACGCCAACGUUCUCAACUAUGACACGCAAAACGCGUGCUGCAUUGAAUGGAGUGUAUCAUG [C35U C51U G67A G92A C131G G133A U145G]
GGAUCUUCUCGAUCUAACAAAAAAGACAAAUCUGUCACAAAGCUUGAGAGUAUCCUCGGAUGCAGAGGCGGCAGCCUUCGGUGGAGCGAUAGCGCCAACGCUAUCAACUAUGACACGCAAAACGCGUGCUCCGUUGAAUGGAGAUUAUCAUG [C35U C51U U55C C85A U101C C103A U144A]
GGAUCUUCUCGAUCUAACAAAAAAGACAAAUCUGUCACAAAGCUUGAGAGCAUUUUCGGAUGCAGAGGCGGCAGCCUUCGGUGGCGGGAUAGCGCCAACGUUCUCAACUAGGACACGCAAAACGCGUGCUCCGUUGAAUGGUGUUUAUCAUA [C35U C54U C87G U111G A142U G152A]
GGAUCUUCUCGAUCUAACAAAAAAGACAAAUCUGUCACAAAGCUUGAGAGCAUCUUGGGAUGCAGAGGCGGCAGCCAUCGGGCGCGCGAUAGAGCCAACGUUCUCAACUAUGACACGCAAAACGCGUGCUCCGUUGGAUGGAGUUUAUCAUG [C35U C57G U77A U82G G83C C93A A137G]
GGAUCUUCUCGAUCUAACAAAAAAGACAAAUCUGUCACAAAGCUUGAGAGCAUCUUUGGAUGCAGAGGCGGCAGCCUUCGGUGGCGCGAUAGUGCCAUCGUUCUCAACUAUGACACACAAAACGCGUUCUCCGUUGAAUGGAGUUUAUAAUG [C35U C57U C93U A98U G117A G128U C149A]
GGAUCUUCUCGAUCUAACAAAAAAGACAAAUCUGUCACAAAGCUUGAGAGCAUCUUCGGAUGCAGAGGAGGCAGCCUUCGGUGGCGAGAUAGCGACAACGUUAUCAACUAUGACACGGAAAACGCGUGCUACGUUGAAUGGAGUUUAUCAUG [C35U C69A C87A C95A C103A C118G C131A]
